From the supplement of paper PMC9446081
About 220 (0.56%) of roughly 39,000 compounds showed activity. This is one part of the list.

These molecules were tested on Escherichia coli K-12 BW25113 (assay: relative growth (OD600 normalised to plate interquartile mean) (fraction); higher = less growth inhibition, active = 0.2 or less). Conditions: 50 µM; LB; incubation time: overnight (16-24 h).
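Note: static incubation at 37 °C against the wild-type strain, values averaged over two biological replicates.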

SMILES	relative growth
C[C@@H]1CN([C@@H](C)CO)C(=O)Cc2cc(NC(=O)C3CCCCC3)ccc2O[C@H]1CN(C)Cc1ccc(C(F)(F)F)cc1	inactive: 0.991
C[C@@H]1CN([C@H](C)CO)C(=O)Cc2cc(NC(=O)Cn3cnnn3)ccc2O[C@H]1CN(C)Cc1ccc(C(=O)Nc2ccccc2N)cc1	inactive: 1.05
C[C@H](CO)N1C[C@H](C)[C@@H](CN(C)Cc2ccc(Oc3ccccc3)cc2)Oc2ccc(NC(=O)CCCN(C)C)cc2CC1=O	inactive: 0.965
Cc1ccc(S(=O)(=O)N2C[C@H](O)COC[C@H]3O[C@H](CC(=O)NCCCN(C)C)CC[C@@H]32)cc1	inactive: 1.03
COc1cccc(S(=O)(=O)N(C)C[C@@H]2Oc3ncc(C#CC(C)C)cc3C(=O)N([C@H](C)CO)C[C@@H]2C)c1	inactive: 0.995
Cc1noc(C)c1NC(=O)Nc1ccc2c(c1)C(=O)N([C@@H](C)CO)C[C@@H](C)[C@@H](CN(C)Cc1ccncc1)OCCCC[C@H](C)O2	inactive: 0.964
C#Cc1ccc([C@@H]2C=C(C(=O)N3CCN(Cc4ccc5c(c4)OCO5)CC3)O[C@H](OCC)[C@H]2CCCO)cc1	inactive: 1.02
Cl.OC(CCN1CCCCC1)(c1ccccc1)C1CCCCC1 (stereo unspecified)	inactive: 0.988
C[C@@H]1CN([C@H](C)CO)C(=O)Cc2cc(NC(=O)Nc3ccccc3)ccc2O[C@@H]1CN(C)Cc1ccc(Oc2ccccc2)cc1	inactive: 0.993
COc1ccc(NC(=O)N(C)C[C@H]2OCCCC[C@H](C)Oc3ccc(NS(=O)(=O)c4ccc(F)cc4)cc3C(=O)N([C@@H](C)CO)C[C@@H]2C)cc1	inactive: 0.933
COc1cccc(C(=O)Nc2ccc3c(c2)C(=O)N(C)[C@H]2CC[C@H](CC(=O)NCC(F)(F)F)O[C@H]2CO3)c1	inactive: 0.991
CCCNC(=O)Nc1ccc2c(c1)C(=O)N(C)C[C@@H](OC)[C@@H](C)CN(Cc1ccc(-c3ccccn3)cc1)[C@@H](C)CO2	inactive: 1.02
CCCCC/C=C/CCC(=O)N[C@H]1[C@H](Oc2c3cc4cc2Oc2ccc(cc2Cl)[C@@H](O[C@@H]2O[C@H](CO)[C@@H](O)[C@H](O)[C@H]2NC(C)=O)[C@@H]2NC(=O)[C@H](NC(=O)[C@@H]4NC(=O)[C@H]4NC(=O)[C@@H](Cc5ccc(c(Cl)c5)O3)NC(=O)[C@H](N)c3ccc(O)c(c3)Oc3cc(O)cc4c3)c3ccc(O)c(c3)-c3c(O[C@H]4O[C@H](CO)[C@@H](O)[C@H](O)[C@@H]4O)cc(O)cc3[C@@H](C(=O)O)NC2=O)O[C@H](CO)[C@@H](O)[C@@H]1O	inactive: 0.978
CC(=O)n1cc([C@@H]2C=C(C(=O)N3CCN(Cc4ccc5c(c4)OCO5)CC3)O[C@H](OCc3ccc(COC(=O)NCCCCCC(=O)NO)cc3)C2)c2ccccc21	inactive: 0.969
[Cl][Ca][Cl]	inactive: 1.14
COc1ccc(CN(C)C[C@H]2OCCCC[C@H](C)Oc3ccc(NC(=O)Nc4c(C)noc4C)cc3C(=O)N([C@@H](C)CO)C[C@H]2C)cc1	inactive: 0.985
C[C@@H]1CCCCO[C@H](CN(C)S(C)(=O)=O)[C@@H](C)CN([C@@H](C)CO)C(=O)c2cc(NS(C)(=O)=O)ccc2O1	inactive: 0.997
C[C@@H]1CN([C@H](C)CO)C(=O)Cc2cc(N(C)C)ccc2O[C@H]1CN(C)S(=O)(=O)c1ccc(F)cc1	inactive: 1
C[C@H]1CN([C@@H](C)CO)C(=O)c2cc(NC(=O)C3CCCCC3)ccc2O[C@H]1CN(C)Cc1ccc(C(F)(F)F)cc1	inactive: 0.97

SMILES	relative growth
C[C@@H]1CN([C@H](C)CO)C(=O)c2cc(NC(=O)Nc3ccc(F)cc3)ccc2O[C@@H](C)CCCCO[C@@H]1CN(C)CC1CCCCC1	inactive: 1.03
C[C@@H]1CCCCO[C@H](CN(C)Cc2ccc(C(F)(F)F)cc2)[C@@H](C)CN([C@@H](C)CO)C(=O)c2cc(NS(=O)(=O)c3cn(C)cn3)ccc2O1	inactive: 0.945
COCC#Cc1ccc2c(c1)O[C@H](CN(C)C(=O)c1ccccc1)[C@@H](C)CN([C@@H](C)CO)S2(=O)=O	inactive: 1.01
COCC(=O)Nc1ccc2c(c1)[C@@H]1C[C@H](CC(=O)N3CCOCC3)O[C@@H](CO)[C@@H]1O2	inactive: 0.997
COc1ccc(S(=O)(=O)N[C@@H]2CC[C@@H](CC(=O)N3CCN(c4ccccc4)CC3)O[C@@H]2CO)cc1	inactive: 0.993
C[C@H](CO)N1C[C@H](C)[C@@H](CN(C)CC2CCCCC2)Oc2ccc(NC(=O)Nc3cccc4ccccc34)cc2C1=O	inactive: 1.02
C[C@H](CO)N1C[C@H](C)[C@H](CN(C)C(=O)Nc2cc(F)ccc2F)Oc2cc(/C=C/c3ccccc3)ccc2S1(=O)=O	inactive: 1.01
OCC(O)CN1CCN(c2ccccc2)CC1 (stereo unspecified)	inactive: 1.11
C[C@@H]1CN([C@H](C)CO)C(=O)c2cc(NC(=O)Nc3ccc4c(c3)OCO4)ccc2O[C@@H]1CN(C)Cc1ccc(C(F)(F)F)cc1	inactive: 1.07
C[C@@H]1CN([C@@H](C)CO)C(=O)Cc2cc(NC(=O)Nc3ccc(C(F)(F)F)cc3)ccc2O[C@@H]1CN(C)C(=O)NC1CCCCC1	inactive: 1.06
C[C@@H]1CN([C@H](C)CO)C(=O)CCCn2nncc2CO[C@@H]1CN(C)C(=O)c1cc(-c2ccccc2)on1	inactive: 0.986
O=C(C[C@H]1C[C@@H]2c3cc(NS(=O)(=O)c4ccc(F)cc4)ccc3O[C@@H]2[C@@H](CO)O1)N1CCCCC1	inactive: 0.962
CS(=O)(=O)Nc1ccc2c(c1)[C@H]1C[C@H](CC(=O)NCC3CC3)O[C@H](CO)[C@H]1O2	inactive: 0.983
C[C@@H]1CN([C@@H](C)CO)C(=O)c2cc(NC(=O)Nc3cccc4ccccc34)ccc2O[C@@H]1CN(C)Cc1ccc(C(=O)Nc2ccccc2N)cc1	inactive: 0.964
C[C@@H]1CN([C@@H](C)CO)S(=O)(=O)c2ccc(-c3ccccc3F)cc2O[C@H]1CN(C)S(C)(=O)=O	inactive: 1.01
C[C@@H]1CCCCO[C@H](CN(C)C(=O)Nc2ccc(C(F)(F)F)cc2)[C@H](C)CN([C@@H](C)CO)C(=O)c2cc(NC(=O)Nc3ccc(F)cc3)ccc2O1	inactive: 1.05
C[C@@H]1CN([C@H](C)CO)C(=O)Cc2cc(NS(=O)(=O)c3ccc(F)cc3)ccc2O[C@@H]1CN(C)CC1CC1	inactive: 0.971
CO[C@H]1O[C@H](CO)[C@@H](OC(=O)c2ccc(Br)cc2)[C@@H]2OC(=O)[C@H](Cc3cccc(Br)c3)C/C=C/C[C@@H](Cc3cccc(Br)c3)C(=O)O[C@@H]12	inactive: 1.02
N[C@H]1CCN(c2nc3c(cc2F)c(=O)c(C(=O)O)cn3-c2ccc(F)cc2F)C1	active: 0.17

SMILES	relative growth
C[C@@H]1CN([C@@H](C)CO)C(=O)c2cc(NC(=O)c3ccccc3)ccc2O[C@@H](C)CCCCO[C@@H]1CN(C)Cc1ccccc1	inactive: 0.876
COc1cc2c(cc1OC)C(=O)OC2	inactive: 0.911
Nc1nc(N)nc(-c2ccccc2)n1	inactive: 1.01
O=C(C[C@H]1CC[C@@H]2[C@H](COC[C@@H](O)CN2C(=O)Nc2ccc(Cl)c(Cl)c2)O1)NCc1ccncc1	inactive: 0.981
COc1ccc(S(=O)(=O)N(C)C[C@@H]2Oc3c(NS(=O)(=O)c4cn(C)cn4)cccc3C(=O)N([C@H](C)CO)C[C@H]2C)cc1	inactive: 0.982
COc1ccc(S(=O)(=O)N(C)C[C@@H]2OCCCC[C@H](C)Oc3ccc(NC(=O)Nc4ccc5c(c4)OCO5)cc3C(=O)N([C@H](C)CO)C[C@H]2C)cc1	inactive: 1
C[C@@H]1CCCCO[C@H](CN(C)C)[C@@H](C)CN([C@H](C)CO)C(=O)c2cc(NS(=O)(=O)c3cn(C)cn3)ccc2O1	inactive: 0.968
C[C@@H]1CN([C@H](C)CO)C(=O)c2cc(NC(=O)Nc3ccc(C(F)(F)F)cc3)ccc2O[C@@H](C)CCCCO[C@@H]1CN(C)C(=O)CCCN(C)C	inactive: 0.938
COc1ccc(S(=O)(=O)Nc2ccc3c(c2)C(=O)N([C@@H](C)CO)C[C@H](C)[C@@H](CN(C)S(=O)(=O)c2ccc(C)cc2)O3)cc1	inactive: 1
CS(=O)(=O)Nc1ccc2c(c1)[C@H]1C[C@@H](CC(=O)NCc3ccc(-c4ccccc4)cc3)O[C@H](CO)[C@H]1O2	inactive: 1.02
C[C@H]1CCCCO[C@H](CN(C)C(=O)Nc2ccc(F)cc2)[C@@H](C)CN([C@@H](C)CO)C(=O)c2cc(NC(=O)Nc3cccc4ccccc34)ccc2O1	inactive: 1
C[C@@H]1CN([C@H](C)CO)C(=O)c2cccc(NS(=O)(=O)c3cn(C)cn3)c2O[C@@H]1CN(C)C(=O)Nc1ccc(F)cc1	inactive: 0.98
O=C(CCCCCCC(=O)N/N=C/[C@@H](O)[C@@H](O)[C@H](O)[C@H](O)CO)NO	inactive: 1
Cc1cc(C(=O)Nc2cccc3c2O[C@H](CN(C)S(=O)(=O)c2cn(C)cn2)[C@H](C)CN([C@H](C)CO)C3=O)n(C)n1	inactive: 1.01
C[C@H]1CN([C@@H](C)CO)C(=O)Cc2cc(NS(=O)(=O)c3ccc(F)cc3)ccc2O[C@H]1CN(C)Cc1ccc(Cl)c(Cl)c1	inactive: 0.995
C[C@@H]1CN([C@H](C)CO)C(=O)c2cc(NC(=O)Nc3ccccc3)ccc2O[C@H]1CN(C)Cc1ccc(Oc2ccccc2)cc1	inactive: 1.08
NC(=O)c1cccc(N)c1	inactive: 0.807
C[C@H](CO)N1C[C@H](C)[C@@H](CN(C)C(=O)Nc2ccc3c(c2)OCO3)OCc2cnnn2CCCC1=O	inactive: 0.998
